# According to the supplement of paper PMC3334620:
# Whole data set: some 33,000 sequences, median “E-score (-0.5 to 0.5)” near -0.01, cut for the highest 2% near 0.26. The list shows a part of the results.
# Biological target: Ste12 (UniProt P13574)
# Test: PBM E-score (8-mer binding enrichment) (E-score (-0.5 to 0.5)); higher = stronger / more preferred TF binding; most listed sequences are background and not binding sites
# Conditions: protein concentration: 200 nM; construct: GST-DNA-binding domain
# How it was run: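 Using PURExpress in vitro transcription/translation, GST-tagged yeast transcription factors were made in full-length or DNA-binding-domain form. These were applied at about 100-200 nM to double-stranded universal all-10-mer Agilent arrays, and bound protein was detected with fluorescent anti-GST. Scans were normalised with masliner before the Universal PBM Analysis Suite assigned E-scores to ungapped eight-base words pooled with their reverse complements.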
row,Sequence,PBM E-score
1,ATGTTCTG,0.0599
2,CCATTCCG,-0.0471
3,CACTTCAC,-0.0604
4,AGCGCAAC,-0.154
5,CGGATTGC,-0.0637
6,ATTAAGAA,0.192
7,GAGAAATA,0.176
8,AATAAGGC,-0.0645
9,ATCCAGAA,0.141
10,GGGTACCA,-0.241
11,ATCGCCTA,-0.00374
12,ACAGAGTA,-0.06
13,CAGTCTGA,0.0561
14,GGACCTCC,-0.0674
15,ATTCTCCC,-0.00819
16,CGGTCGAA,0.00203
17,GCATTAGC,-0.141
18,CGTGAGCC,-0.212
19,CACCTCTC,-0.113
20,CTAAGATA,0.0814
21,CAGTTCGG,0.062
22,ATGTGTCG,0.208
23,AGTTTATG,0.116
24,GAGCCGGC,0.148
25,TCATGAAA,0.27

row,Sequence,PBM E-score
1,AAAGTTCC,-0.119
2,CATTGGTC,-0.176
3,CACAAATC,0.0808
4,AACGAAAG,0.0635
5,GGGGTGGA,0.00832
6,GTTTTCGA,0.0173
7,AATCTTAT,0.0186
8,AACATGTA,0.137
9,AATGTAGT,0.035
10,ACTTGAGA,0.142
11,TCTACAAA,0.138
12,TGTGTGAA,0.284
13,ACCTTGGG,0.0137
14,AGGTGGCG,-0.0163
15,ACTTTCCG,0.0997
16,AGCAATAC,-0.0279
17,ATCAATTA,0.289
18,GCGCCGCC,0.132
19,ATTCTACG,-0.046
20,GTAAGGTA,0.151
21,GTGTACTA,0.0871
22,GTCGGAAA,0.257
23,CGCCCGTC,0.213
24,AATACGGG,-0.0824
25,ACAGCGCC,-0.0268

row,Sequence,PBM E-score
1,AAGACCTA,-0.0739
2,ACAGGTCA,-0.129
3,CTCGGGTA,-0.0234
4,ACCTTCTG,0.109
5,GAGTTCCC,-0.3
6,AGAGTATA,-0.0264
7,ATGAGCCG,-0.126
8,AGACTTTC,0.0873
9,CTATCTCA,0.0566
10,AAACCCCC,-0.122
11,ACATAATC,0.222
12,AGAGGAAT,-0.13
13,GATGCGTA,-0.0997
14,CAGTTCTC,-0.115
15,CAAGCTTG,-0.0564
16,ATGCCCTG,-0.157
17,CTGAGTGA,0.189
18,AGTAGATC,-0.0712
19,CAACAGTA,0.106
20,AATATTCA,0.133
21,AAGTCCCA,-0.102
22,AATTTCAT,0.0623
23,CGGGACCA,-0.172
24,ATTCCCCG,0.0202
25,CATTTGAG,-0.0634

row,Sequence,PBM E-score
1,CACTGCTG,-0.12
2,CACTTACA,0.0904
3,CCCTATCC,-0.158
4,AAAGAAAT,0.175
5,GCTGTCGA,-0.0219
6,AAAAAGCG,0.317
7,ACCGACAA,0.0831
8,GGGGCTCA,-0.115
9,GCTATTCC,-0.12
10,CGTCCTTA,-0.21
11,GCGGGTCC,-0.0653
12,GCCCCACA,0.101
13,AAAGAGCG,0.0986
14,AACAAGCC,-0.125
15,CTCCACGA,-0.211
16,GAATTGAC,0.0316
17,ATGCCTTG,-0.115
18,CCAGGGCG,-0.256
19,ACATCTGG,0.042
20,GAAGGAGC,-0.286
21,TCGAACAA,0.168
22,CGTGGGAC,-0.103
23,CTGGCTCA,0.0252
24,AATATAGG,0.114
25,GTAGACAA,-0.00663

row,Sequence,PBM E-score
1,GCGTATAA,0.168
2,CATATTCG,-0.0199
3,ATCGCTAC,0.0654
4,ACGGTATG,-0.039
5,AGTTACCG,0.128
6,TGAACCAA,0.152
7,AAATCAAA,0.254
8,AGTTTGTC,0.0062
9,CGCGCTCC,0.197
10,AACTCCGG,0.105
11,GAGTGCTA,-0.0599
12,ATCTATAG,0.0127
13,CTGATCCA,0.0655
14,ACATCAAG,0.0747
15,GCGCTCCA,-0.101
16,GACCCGCA,-0.232
17,CCTACTCC,-0.0851
18,GAGGGGAA,0.0394
19,ACGTACTA,-0.0348
20,CGATTCTC,-0.157
21,GGCCCACC,-0.103
22,AGACCCCT,-0.25
23,ATCAATGA,0.0644
24,ATTCTTGG,0.117
25,ATTAAACC,0.156

row,Sequence,PBM E-score
1,CGGACGAA,0.123
2,ACGGGCCC,-0.199
3,GGACTTGA,-0.354
4,CGCATCGC,-0.171
5,GAATCTCC,0.0651
6,CCCTTCTC,-0.181
7,CTTGTGTA,0.0226
8,CCGAAAGA,0.134
9,ACCTCCTC,-0.0965
10,CCTACGAA,-0.00146
11,GAAGGTCA,-0.0998
12,CCGTTCAC,-0.184
13,CGACGGAG,0.084
14,ATTGATGG,0.24
15,CACCGGTG,0.0993
16,ATCGTCGC,-0.177
17,CAGCGCGG,0.0481
18,GACAATAA,0.0795
19,CTAGTAAC,0.0924
20,CGACACTC,-0.116
21,ATCCTCCG,-0.0456
22,CAGTTAGG,-0.0508
23,AGTCTTAG,-0.141
24,AAATAGGG,0.194
25,GGCACTTA,-0.157

row,Sequence,PBM E-score
1,TACGCCGA,-0.0362
2,CACAGCTG,-0.0152
3,CTCACGGC,0.0191
4,ATTGTACC,0.00466
5,GGTACCGA,-0.207
6,AGCTCAGC,-0.398
7,AACCATCG,0.164
8,ACGCAGGG,-0.0649
9,AAGCGGGG,-0.116
10,CGTTTAAG,0.165
11,CGCACTGC,0.0271
12,AAATTTAC,0.197
13,GAAAAACC,0.22
14,CTCGGTGC,-0.0947
15,AAATGTGT,0.181
16,AGACGTCT,0.0034
17,AGCGAATA,0.0711
18,TCAATGCA,-0.107
19,CTGATGTA,0.166
20,GTGAATCA,-0.0548
21,AACTGTAC,-0.0609
22,CCGGCCCC,-0.033
